# Data from PubChem BioAssay (Tox21).
# Values joined by “and” are separate entries in the source; they are usually repeats but may differ in a detail not shown here. Equal values may be shown once. This list was built around the results that the source calls inconclusive (neither active nor inactive); the mix of calls is not that of the screen. Where the call is inconclusive, the potency comes from a doubtful curve fit. Where a structure was tested more than once in an assay, its records may differ in their call. Active and inactive are the calls of the source. Calls follow the shape of the dose curve; as a rule, active = well fitted inhibition curve with a large enough effect in the repeat runs; inconclusive = weak or mixed curves; inactive = flat fitted curve, though single readings scatter.
# Target: Voltage-gated inwardly rectifying potassium channel KCNH2 (Homo sapiens) (UniProt Q12809)
# Chain of UniProt Q12809 (Q12809 whole entry, looked up): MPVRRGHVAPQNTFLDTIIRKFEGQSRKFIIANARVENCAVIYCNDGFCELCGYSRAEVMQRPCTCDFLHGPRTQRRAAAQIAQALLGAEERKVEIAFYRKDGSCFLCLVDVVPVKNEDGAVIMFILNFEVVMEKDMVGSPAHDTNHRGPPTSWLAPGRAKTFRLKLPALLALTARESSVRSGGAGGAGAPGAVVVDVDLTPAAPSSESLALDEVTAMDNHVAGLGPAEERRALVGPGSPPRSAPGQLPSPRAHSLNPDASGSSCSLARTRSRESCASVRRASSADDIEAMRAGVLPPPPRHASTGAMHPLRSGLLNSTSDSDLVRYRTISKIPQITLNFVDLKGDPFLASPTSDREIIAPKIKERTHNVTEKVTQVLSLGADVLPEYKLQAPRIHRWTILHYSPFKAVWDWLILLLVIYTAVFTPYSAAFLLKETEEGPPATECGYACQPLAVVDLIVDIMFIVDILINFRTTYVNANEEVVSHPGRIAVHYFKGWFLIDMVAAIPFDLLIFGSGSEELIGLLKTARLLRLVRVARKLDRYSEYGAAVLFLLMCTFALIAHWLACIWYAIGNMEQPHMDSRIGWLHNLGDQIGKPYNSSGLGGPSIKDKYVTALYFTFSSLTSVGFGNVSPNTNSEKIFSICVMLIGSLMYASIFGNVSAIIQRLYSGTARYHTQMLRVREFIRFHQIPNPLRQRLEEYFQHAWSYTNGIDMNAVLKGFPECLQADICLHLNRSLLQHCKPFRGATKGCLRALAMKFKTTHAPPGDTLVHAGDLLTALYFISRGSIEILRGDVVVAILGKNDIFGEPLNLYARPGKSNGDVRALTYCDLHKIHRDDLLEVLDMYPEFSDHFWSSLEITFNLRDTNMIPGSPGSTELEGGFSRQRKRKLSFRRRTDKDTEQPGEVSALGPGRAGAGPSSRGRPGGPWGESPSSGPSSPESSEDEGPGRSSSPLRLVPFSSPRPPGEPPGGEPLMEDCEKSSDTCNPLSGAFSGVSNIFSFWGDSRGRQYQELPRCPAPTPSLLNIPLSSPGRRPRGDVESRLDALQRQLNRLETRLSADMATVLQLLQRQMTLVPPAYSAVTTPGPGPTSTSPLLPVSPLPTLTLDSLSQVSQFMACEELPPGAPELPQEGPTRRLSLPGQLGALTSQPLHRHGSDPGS
# Assay: Human Ether-a-go-go-Related Gene (hERG) channel small molecule antagonists: fluorescence cell-based qHTS assay (AID 1671200); also: nearly all actives have a fitted effect of over 50% in size
# Conditions: hERG-U2OS cells, FluxOR thallium flux fluorescence; series mostly up to 76.8 µM; activity change, negative = inhibition: at the top concentration
# Description: National Center for Advancing Translational Sciences [NCATS]
# U.S. Environmental Protection Agency [EPA]
# National Institutes of Environmental Health Sciences [NIEHS]
# National Toxicology Program [NTP]
# U.S. Food and Drug Administration [FDA]
# Mutations in the hERG channel cause Long QT (LQT) syndrome. LQT syndrome is a cardiac disorder which can cause ventricle arrhythmia and sudden death. Additionally, compounds which block the hERG channel can cause acquired LQT syndrome. Several FDA approved drugs have been removed from the market due to their hERG blocking activity. A cell-based hERG channel inhibition assay can be used to screen chemical compounds that inhibit hERG channel. This assay measures hERG channel activity using thallium ions as surrogate ions to measure potassium into the cells.
# Tox21 Assay Protocol Summary:
# hERG-U2OS cells were resuspended in culture medium and dispensed into 1536-well, black wall/clear-bottom plates at 1000cells/well/3uL using a Multidrop Combi dispenser (Thermo Fisher, Waltham, MA). After plates were incubated at 37 C overnight, 3 uL of Loading Buffer provided by FluxOR II Potassium Ion Channel Assay kit (Thermo, Carlsbad, CA) was added to each well. The assay plates were then incubated at room temperature in the dark for 1h. […] After the assay plates were incubated at room temperature for 10 min, 1 uL of Stimulus Buffer provided by FluxOR II Potassium Ion Channel Assay kit was added into each well and fluorescence intensity (480nm excitation/540nm emission) was continuously measured for 2 min at 1 second intervals using a Functional Drug Screening System (FDSS) 7000EX kinetic plate reader (Hamamatsu, Japan).
# % is scaled to controls: 0 for no effect and ±100 for the full control effect; potency is read from the fitted curve at half-maximal effect; tags tell the direction and shape of the fitted curve.
Structure (SMILES),Potency,"activity change, negative = inhibition"
CCCCCCCC/C=C\CCCCCCCC(=O)N(CCO)CCO,"inconclusive: 27.4 µM [inhibitor, partial curve, poor fit]",–
O=C1CCCCCCCCCCCCCC1,"inconclusive: 21.9 µM [inhibitor, partial curve]",–
Clc1ccccc1C(c1ccccc1)(c1ccccc1)n1ccnc1,active: 19.5 µM and active: 16.9 µM,–
COc1cc([C@@H]2c3cc4c(cc3[C@H](O)[C@H]3COC(=O)[C@H]23)OCO4)cc(OC)c1OC,"inconclusive: 24.5 µM [inhibitor, partial curve, poor fit]",–
BrC1CCC(Br)C(Br)CCC(Br)C(Br)CCC1Br (stereo not given),"inconclusive: 14.7 µM [inhibitor, full curve]",–
Cc1nc(-c2ccc3c(c2)CCN(CCC2CCC(NC(=O)/C=C/c4ccc(F)cc4)CC2)CC3)no1 (stereo not given),active: 0.873 µM,–
O=C(c1ccc(O)cc1)c1ccc(O)cc1O,inactive,–
CCCCCCCCOC(=O)c1cc(O)c(O)c(O)c1,"inconclusive: 43.6 µM [inhibitor, partial curve, poor fit]",–
O=C1C=CC(=O)N1c1ccc(Cc2ccc(N3C(=O)C=CC3=O)cc2)cc1,active: 34.7 µM,–
CCCCCCCCCC[N+](C)(CCCCCCCCCC)CCC[Si](OC)(OC)OC,active: 2.45 µM,–
Cc1ccc(C(C)(C)C)c(O)c1,"inconclusive: 59.7 µM [inhibitor, single point]",–
CC1=C(/C=C/C(C)=C/C=C/C(C)=C/C(=O)Nc2ccc(O)cc2)C(C)(C)CCC1,inconclusive: 23.9 µM [inhibitor],–
CSc1ccc2c(c1)C(N1CCN(C)CC1)Cc1ccccc1S2 (stereo not given),active: 1.07 µM,–
Oc1ccc(O)cc1,inactive,–
CC(C)(c1cc(Br)c(OCCO)c(Br)c1)c1cc(Br)c(OCCO)c(Br)c1,"inconclusive: 47.9 µM [inhibitor, single point]",–
CC(C)(C)NC(=O)[C@@H]1C[C@@H]2CCCC[C@@H]2CN1C[C@@H](O)[C@H](Cc1ccccc1)NC(=O)[C@H](CC(N)=O)NC(=O)c1ccc2ccccc2n1,active: 22.2 µM,–
CCN(CC)C(=S)SSC(=S)N(CC)CC,"inconclusive: 21.9 µM [inhibitor, full curve]",–
CC1CC(OC(=O)c2ccccc2O)CC(C)(C)C1 (stereo not given),"inconclusive: 21.9 µM [inhibitor, partial curve, poor fit] and inconclusive: 21.3 µM [inhibitor, partial curve]",–
COC(=O)c1c(Cl)c(Cl)c(C(=O)OC)c(Cl)c1Cl,"inconclusive: 49 µM [inhibitor, partial curve] and inconclusive: 34.7 µM [inhibitor]",–
CCCCCCCC/C=C/CCCCCCCC1=NCCN1CCO,"inconclusive: 6.16 µM [inhibitor, full curve]",–

Structure (SMILES),Potency,"activity change, negative = inhibition"
CCCCC/C(C=O)=C\c1ccccc1,"inconclusive: 27.6 µM [inhibitor, partial curve, poor fit]",–
CCCCCCCCCCCCN,inactive and active: 12.3 µM,–
Cc1cc(Br)ccc1NC(=O)CCl,–,inactive: 13.3%
CCCCCCCCCCCCCC[P+](CCCC)(CCCC)CCCC,active: 194 nM and active: 275 nM,–
C=C1C(C)(C)[C@@]2(Cl)C(Cl)[C@]1(Cl)C(Cl)(Cl)C2(Cl)Cl (stereo not given in full),active: 27 µM,–
CC1=NN(c2ccccc2)C(=O)C1,inactive,–
CC(C)(c1cc(Br)c(O)c(Br)c1)c1cc(Br)c(O)c(Br)c1,"inconclusive: 32.8 µM [inhibitor, partial curve]",–
CCCOc1sc(C(=O)N2CCC(c3cc(CN)ccc3F)CC2)c(C)c1Br,active: 5.65 µM,–
CC(C)c1ccc(S(=O)(=O)O)cc1,inactive,–
CC(Cc1ccc(O)c(O)c1)C(C)Cc1ccc(O)c(O)c1 (stereo not given),"inconclusive: 49 µM [inhibitor, partial curve, poor fit]",–
CC(C)CCCCCCc1ccc(O)cc1,"active: 39.6 µM and inconclusive: 34.7 µM [inhibitor, partial curve]",–
Cc1cc(Cc2cc(C)cc(C(C)(C)C)c2O)c(O)c(C(C)(C)C)c1,"inconclusive: 21.9 µM [inhibitor, partial curve]",–
CCCCCCCCCCCCc1ccc(O)cc1,"inconclusive: 17.4 µM [inhibitor, full curve]",–
Clc1ccc(C(c2ccccc2Cl)C(Cl)Cl)cc1 (stereo not given),"inconclusive: 21.9 µM [inhibitor] and inconclusive: 13.4 µM [inhibitor, partial curve]",–
CC(C)(C)CC(C)(C)c1ccccc1O,inconclusive: 19.6 µM [inhibitor],–
Cc1cc(C(C)(C)C)c(O)c(C(C)(C)C)c1,"inconclusive: 27.6 µM [inhibitor, partial curve] and inconclusive: 12.3 µM [inhibitor, partial curve, poor fit]",–
CC(=O)O[C@]1(C(C)=O)CC[C@H]2[C@@H]3C[C@H](C)C4=CC(=O)CC[C@]4(C)[C@H]3CC[C@@]21C,"inconclusive: 48.9 µM [inhibitor, partial curve, poor fit]",–
CCCCCCCCCCCCCCCCCC[N+](C)(C)C,"inconclusive: 17.4 µM [inhibitor, partial curve]",–
Oc1ccc(Cl)cc1Cc1cc(Cl)ccc1O,"inconclusive: 15.8 µM [inhibitor, partial curve, poor fit] and inconclusive: 54.9 µM [inhibitor, single point]",–
CCOC(=O)C1=C(C)NC(C)=C(C(=O)OCC)C1c1ccccc1/C=C/C(=O)OC(C)(C)C,"inconclusive: 19 µM [inhibitor, partial curve]",–
